# Reference: the supplement of paper PMC3334620
# In all, about 33,000 sequences were measured (“E-score (-0.5 to 0.5)”: median about -0.043, highest 2% from about 0.37 on). The list shows a part of the results.
# Target: T1, Upc2 (UniProt Q12151)
# T1 sequence: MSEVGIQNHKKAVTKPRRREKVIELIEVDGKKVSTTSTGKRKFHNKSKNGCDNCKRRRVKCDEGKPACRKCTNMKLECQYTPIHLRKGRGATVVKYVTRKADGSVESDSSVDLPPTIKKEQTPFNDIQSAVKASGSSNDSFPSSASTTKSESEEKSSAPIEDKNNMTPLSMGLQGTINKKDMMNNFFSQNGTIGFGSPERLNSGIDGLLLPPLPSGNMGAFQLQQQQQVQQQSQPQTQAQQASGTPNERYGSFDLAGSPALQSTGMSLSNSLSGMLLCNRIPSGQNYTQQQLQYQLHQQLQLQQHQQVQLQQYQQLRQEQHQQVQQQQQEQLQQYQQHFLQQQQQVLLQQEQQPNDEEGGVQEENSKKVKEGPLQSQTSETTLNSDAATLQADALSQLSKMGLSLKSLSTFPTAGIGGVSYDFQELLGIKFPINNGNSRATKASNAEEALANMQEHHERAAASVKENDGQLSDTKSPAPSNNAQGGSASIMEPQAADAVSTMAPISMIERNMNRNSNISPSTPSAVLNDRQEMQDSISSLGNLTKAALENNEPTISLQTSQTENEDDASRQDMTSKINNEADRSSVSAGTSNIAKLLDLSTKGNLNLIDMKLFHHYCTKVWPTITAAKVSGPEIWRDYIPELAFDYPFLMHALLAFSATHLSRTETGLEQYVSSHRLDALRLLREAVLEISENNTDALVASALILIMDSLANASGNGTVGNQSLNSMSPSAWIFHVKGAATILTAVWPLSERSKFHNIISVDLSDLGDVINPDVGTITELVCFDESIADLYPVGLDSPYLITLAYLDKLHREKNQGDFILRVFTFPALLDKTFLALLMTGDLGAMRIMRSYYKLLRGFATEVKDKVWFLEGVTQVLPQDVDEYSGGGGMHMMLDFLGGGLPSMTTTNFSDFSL
# Assay: PBM E-score (8-mer binding enrichment) (E-score (-0.5 to 0.5)); higher = stronger / more preferred TF binding; most listed sequences are background and not binding sites
# Settings: protein concentration: 200 nM; construct: GST-full length
# Method: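 Universal 'all 10-mer' protein binding microarrays (Agilent AMADID 015681) probed with GST-tagged S. cerevisiae TFs (full-length or DBD) made by in vitro transcription/translation (PURExpress), about 100-200 nM. Bound TF was detected with fluorescent anti-GST. Each ungapped 8-mer (which stands for itself and its reverse complement) is scored by the PBM enrichment score (E-score), a modified Wilcoxon-Mann-Whitney statistic from -0.5 to +0.5, computed with the Universal PBM Analysis Suite. Scale: above 0.35 generally sequence-specific binding.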
row,Sequence,PBM E-score
1,AATGTAGC,-0.0689
2,AGGTCGCA,0.13
3,AGGAGGGA,-0.278
4,GTTTCAAA,0.0965
5,ACTGCGTG,-0.0214
6,GCAATCTA,-0.0928
7,GCAGCTCA,-0.183
8,CAGCGATC,0.149
9,TGATAACA,0.115
10,GTCACTCA,-0.183
11,CAGGCGGA,-0.00607
12,TAAAGAGA,-0.0259
13,ATCACTAC,-0.153
14,TGTCTTAA,-0.141
15,AGTTCGGA,-0.0507
16,ATTTGCAA,0.0573
17,GGAACGCC,0.013
18,ACGGCCTG,0.0204
19,CCACCTGA,-0.171
20,AACACCGC,-0.0137
21,AAAATCAA,-0.0608
22,AATGCGTC,-0.168
23,CGGCTACC,-0.104
24,CTGGCTCC,-0.252
25,AGAGCCTC,-0.0518

row,Sequence,PBM E-score
1,ACGGGAAG,0.108
2,GTTCCTTA,0.171
3,CAGAGTAA,-0.178
4,CAGAGATA,-0.0881
5,AACTGTAT,0.0377
6,CCTCATAG,-0.226
7,CCAGGAAG,-0.066
8,GCTAGTAC,0.123
9,TCATCGCA,0.132
10,AGAGGCAG,-0.0863
11,AATAGTGA,-0.144
12,AGCACGTG,0.144
13,AGGGAGTG,-0.189
14,ACTAGCCC,-0.218
15,ACAACACA,0.0331
16,CAACCGAA,0.173
17,GCGGGTAC,0.149
18,ACGGTAAG,0.246
19,AGAATGGC,-0.0744
20,AGGCAACT,-0.0376
21,TATCCTCA,0.0143
22,AAGGGACC,-0.00722
23,AACGAAAT,0.398
24,AGTTCGAT,-0.131
25,AATGGGGG,-0.252

row,Sequence,PBM E-score
1,AAGAAAGC,-0.0961
2,AACTCCGT,0.0263
3,ACAGCCAT,0.0163
4,CCCCGTGA,-0.217
5,CGCAGGTC,-0.111
6,GAGAATAA,0.0362
7,AAGAAATC,-0.0456
8,AAAGCACA,0.0274
9,GGTTACAA,0.101
10,AACGGGCG,0.274
11,AATACATA,-0.115
12,AACCTGCA,0.0779
13,AAACTAGC,-0.111
14,GGATAAAC,0.239
15,AGCGAGTA,0.269
16,CTGAGACC,-0.291
17,GATCTCAA,-0.109
18,ACTGGCAC,-0.24
19,AGTGCCAA,-0.0209
20,GGATGGCC,-0.314
21,TATAAATA,0.13
22,GGGTTTAC,0.144
23,ATACCTAA,0.108
24,ATACGCCG,0.343
25,CATTAGAC,-0.407

row,Sequence,PBM E-score
1,GCTCATGA,0.13
2,GAGGGGTA,0.0563
3,AGAGCGAA,0.0669
4,CTAATACA,-0.173
5,AAATAACA,0.0355
6,GCACACGC,-0.157
7,CCAGAAGC,-0.246
8,TAATCTAA,-0.113
9,GATACGGC,0.324
10,AGTGGGAT,0.0238
11,CCTTCCCA,-0.117
12,AAGACCCA,-0.151
13,GTATCATA,0.269
14,ACGTCAGA,-0.174
15,CGGTGAAG,-0.0357
16,AAGCCTTC,-0.324
17,CTGGACTC,-0.159
18,GCCAAGCA,-0.254
19,ATAGCCCC,-0.19
20,CCATCAAA,0.0175
21,CAGATCAA,-0.163
22,CTACTCTC,-0.194
23,CCATCGCA,0.0499
24,GGCCTATA,0.0533
25,AATTTTAG,0.0625

row,Sequence,PBM E-score
1,AGTGCGGC,-0.143
2,ATACGCTC,0.357
3,ACGAGCAC,0.327
4,ACCTTCAA,-0.19
5,CCATCTCA,-0.28
6,CAAGTCGC,-0.0572
7,AGAAATTG,-0.0168
8,CACCGTAG,0.0923
9,ACTCCTAT,-0.0419
10,CGCCCGCG,-0.0813
11,CGGGTACA,0.114
12,CGTTGGTC,0.026
13,CCTTTCGC,0.00807
14,CGAGGAGC,0.185
15,GCAACTAC,-0.19
16,CACGGGCC,-0.282
17,CACGACTA,-0.0651
18,GCTAGCCA,-0.298
19,GTTACCGA,0.166
20,CTCTATGC,-0.0449
21,TAGAACAA,-0.138
22,AACAACTA,-0.0906
23,TCCAGCGA,-0.102
24,AGTGGACA,-0.197
25,CGGGATAA,0.0746

row,Sequence,PBM E-score
1,AGTTCAGG,-0.0566
2,CACTAGAA,-0.134
3,CGAATTTC,0.0708
4,CACCTCCG,-0.262
5,ATCTAGCG,-0.0924
6,CCTTTGGC,-0.349
7,CGCGTATA,0.451
8,CGGATTAA,0.128
9,GTCCGAAC,-0.0689
10,AGGGGCAC,-0.107
11,CACAAACG,0.387
12,CCGTGGAC,-0.0684
13,CGAACCCC,-0.0262
14,ATGTTGTC,-0.0387
15,AGGTGCGC,-0.0888
16,CACGACAC,0.114
17,CCACAAGA,-0.204
18,CCGGCGGC,-0.183
19,ATAGCATG,-0.146
20,GGATAAAA,-0.0346
21,AGACACAC,0.0482
22,TAGACCGA,-0.0372
23,CCTCATTC,-0.221
24,GCCTAATA,-0.0394
25,ATGCGTCA,0.0463

row,Sequence,PBM E-score
1,ATCGTATG,0.455
2,CTATAAAA,0.108
3,CCAACGAA,0.109
4,CTGAACCC,0.0462
5,GCGACAAC,0.204
6,AAGTAACC,0.0147
7,GTACTCCA,-0.0733
8,GAATTCTA,-0.087
9,GAAGTTCC,-0.179
10,AGCATCAA,-0.104
11,ACGTCCGG,-0.0587
12,AGTTAGGC,-0.0155
13,AACGTCAT,0.113
14,GTCCAACA,-0.0297
15,CTTATGGC,-0.0984
16,AAGACCGT,0.0184
17,GCGCCTCC,-0.133
18,TAACTCCA,-0.0975
19,CTAGCCGA,-0.102
20,AGTCCCGA,-0.167
21,CTCGCTGC,-0.118
22,GGGCTTTA,-0.0974
